Measured values taken from PMC12136788.
This is one part of the list.

B1: chr10:63621301:63621396:+|3pUTR|ENSG00000165476|msi1_unk|total|mutant (ssRNA)
RNA: GGGAGUUCUACAGUCCGACGAUCUGUAAGAUAAUAAAGCCGGUUUUAUAUAUUCUUUAAAUUUUUACUUAUAUAAUACUUUCCCGUUUUUCCACCAUCAGCUGAAAGUUUUUGAAACAAAUAUUUGAAAACCAGGUAUCCACACAACAGAGGAUUGAGCAUCA
B2: ENSG00000124766:be:win_851|CDS|ENSG00000124766|bound_else_gene|NA|bound_elsewhere_windowed (ssRNA)
RNA: GGGAGUUCUACAGUCCGACGAUCCGGGCAAGCACCUGGCGGAGAAGAAGGUGAAGCGCGUCUACCUGUUCGGCGGCCUGGGCACGUCGUCGUCGCCCGUGGGCGGCGUGGGCGCGGGAGCCGACCCCAGCGACCCCCUGGGCCCAACAGAGGAUUGAGCAUCA
B3: chrX:48700291:48700392:+|CDS|ENSG00000101945|unk|FALSE|unique (ssRNA)
RNA: GGGAGUUCUACAGUCCGACGAUCGCUCCGUCGCUGGGAGCAGGAGCUCAAUGCCAAGCGCAGCCAUCUGGGACGCAUCACUGUAGAGAAUGAGGUGGACCUGGACGGCCCUCCGCGGGCCUUCGUGUACAUCAAUGAGUACCGCAACAGAGGAUUGAGCAUCA
B4: chr1:169376695:169376796:+|CDS|ENSG00000117475|unk|total|mutant (ssRNA)
RNA: GGGAGUUCUACAGUCCGACGAUCUCUUCAGCCCGGGAAAAUGCUCACUGAAAAAGCAAUGGAAGUUAAAGCUGUAAGAAUAUCCGUUCCCAAAGCUGCUAUAACUCAUGAUAUCCCCAACAAAAAUACAAAGGUUAAGUCUCUCAACAGAGGAUUGAGCAUCA
B5: ENSG00000150347:stop:overlap|stop_codon|ENSG00000150347|stop_codon|NA|stop_codon (ssRNA)
RNA: GGGAGUUCUACAGUCCGACGAUCAUCCUCAAGCUGCCUUUCCAUCUUCCCAGCUGUCAUCCGUGCACCCCAGUACAAAACUGUAGGCUCAGCUCUGCCCAGCAGUCCAAAGCGGCAUGGCCAACAGAGCUUCACUCCUUACCCCAACAGAGGAUUGAGCAUCA
B6: chr5:178210945:178211047:+|3pUTR|ENSG00000197451|unk|total|mutant (ssRNA)
RNA: GGGAGUUCUACAGUCCGACGAUCCUGCUGCCGCUCUGCAGCCUGGACCUGUGGACCCUGGUUGUAAAGAGUAAAUUGUAUCUCCGGAAACCAGUGUCACCUUUUUUUCACCUUUUAAUUUUAUAUUAUUUGCGUCAUACAUUUCAACAGAGGAUUGAGCAUCA
B7: chr3:170996346:170998103:-|three_prime_utr|ENSG00000163581|control|control|control (ssRNA)
RNA: GGGAGUUCUACAGUCCGACGAUCGGAAAUUGCUGCAGAAUUCCAAAAGAAGAGUGGCUCAGCCCACAGGCCAAAAGCUGCUGUAGAAAUGAAAUUCCUAGGAGCUACAGAGACUGUGUAAAAAAAAAACCCUGCUUUUUGACACAACAGAGGAUUGAGCAUCA
B8: chr1:28768968:28769069:+|3pUTR|ENSG00000198492|msi1|total|mutant (ssRNA)
RNA: GGGAGUUCUACAGUCCGACGAUCGACUGCAGCAACGGUUGCAUCUGCAUAUCCUAAGAGGAAAAAAUGACCUUCAAGAGAAUCCGGACUUUUUUCUUAAUUUCACUGACUUCAGAGACGAUUGCAGACUUGCAGUUUAAGUAUCAACAGAGGAUUGAGCAUCA
B9: chr1:71064632:71064733:-|3pUTR|ENSG00000132485|msi1|total|mutant (ssRNA)
RNA: GGGAGUUCUACAGUCCGACGAUCGCUAAGACAGGAUUACCCCGGCUUGCCUGAACUUUGGGCAUGGAAGAAAGACUGGAAACCCGUUGGAAACAACAUACUUAUGGAAAAGAAAGUCAGCCUUUUUAUGCUGUUAACAGAUGUCAACAGAGGAUUGAGCAUCA
B10: chr4:186619803:186619904:-|CDS|ENSG00000083857|msi1|total|mutant (ssRNA)
RNA: GGGAGUUCUACAGUCCGACGAUCAGACGGAGACCCUUUCAGCCAGUUCACUAUUAACUUCAAUACUGGAGUUAUCAAUGUCACCGCUCCUCUGGACUUUGAGGCCCACCCGGCAUAUAAGCUGAGCAUACGCGCAACUGACUCCAACAGAGGAUUGAGCAUCA
B11: ENSG00000107863:be:win_2751|CDS|ENSG00000107863|bound_else_gene|NA|bound_elsewhere_windowed (ssRNA)
RNA: GGGAGUUCUACAGUCCGACGAUCCUCUGGGUCCAGAAAAGAUUCUUCCUCAGAGGUCUUCAGUGAUGCUGCCAAGGAAGGGUGGCUUCAUUUCCGACCCCUUGUCACCGAUAAGGGCAAGCGAGUUGGUGGAAGUAUUCGGCCCAACAGAGGAUUGAGCAUCA
B12: chr7:101138022:101138407:+|3pUTR|ENSG00000106366|msi1|total|mutant (ssRNA)
RNA: GGGAGUUCUACAGUCCGACGAUCCUCUUGGUGGGGAGGGGUGUACCUAAAUAUUUAUCAUAUCCUUGCCCUUGAGUGCUUGUCCGAGAGAAAGAGAACUACUAAGGAAAAUAAUAUUAUUUAAACUCGCUCCCCGUGUUUCUUCAACAGAGGAUUGAGCAUCA
B13: ENSG00000185219:stop:overlap|stop_codon|ENSG00000185219|stop_codon|NA|stop_codon (ssRNA)
RNA: GGGAGUUCUACAGUCCGACGAUCGAAAGACCUUCAGGUGGUCUUCGAACCUGGCUCGGCAUAUGAAAAACCAUAUUAGAGAUUAGCCUGGGACCUGACAGUGACAGUGGGGGUGGGUUCUCAGUCCCCUGCUAGAGAACCCUUCAACAGAGGAUUGAGCAUCA
B14: chr14:53043751:53043854:-|3pUTR|ENSG00000100523|unk|total|mutant (ssRNA)
RNA: GGGAGUUCUACAGUCCGACGAUCACUCCGAUUAAAUCUUGCUUUAUUUUUACUUUAAAAUCCGUCUUGCUAAGGCCUUAUGUCCGUUCAUACUUUCUUUUCAACAGUAAUCUUGUUUAUAAUCCAGUGUUUCUGUGUUUCCGGCAACAGAGGAUUGAGCAUCA
B15: chr2:223959526:223959698:+|CDS|ENSG00000135900|unk|total|mutant (ssRNA)
RNA: GGGAGUUCUACAGUCCGACGAUCCUGGGAUUACCAUGCAGAAAUACAAGCUUUUGGACAUCGGUUACAGGAAAACUUUUCCUCCGAUCUUCUCAAAACUGCAUUUGUUAACCGCUGCUAUAUUAAAAGUGAGGAGGCCAAACGCAACAGAGGAUUGAGCAUCA
B16: chr5:157463210:157463311:+|CDS|ENSG00000172548|unk|FALSE|unique (ssRNA)
RNA: GGGAGUUCUACAGUCCGACGAUCCAGGAAAGAAUCAGGCAGAACUAUGGCUUCUACAUCGGCCUGGGCCUGGCAUUCCUGUCUAGCUUCCUCAUCGGCAGCAGCGUCAUCCUCAAGAAGAAAGGCCUCUUGCGACUCGUGGCCCAACAGAGGAUUGAGCAUCA
B17: ENSG00000107863:be:win_2451|CDS|ENSG00000107863|bound_else_gene|NA|bound_elsewhere_windowed (ssRNA)
RNA: GGGAGUUCUACAGUCCGACGAUCUGAUAUUGCACAUAUCCCUGCCUCUGCUGUUAUAUCAGCCUCUACCUCUCAGGUCCCCUCCAUAGCAACAGUUCCUCCUUGCCUCACAACUUCAGCUCCAUUAAUUCGCCGUCAGCUCUCCAACAGAGGAUUGAGCAUCA
B18: chr9:19276226:19276327:+|CDS|ENSG00000137145|unk|total|mutant (ssRNA)
RNA: GGGAGUUCUACAGUCCGACGAUCCUUUGUCGCCGCUGGUCUCACUGACACAUCUACUCUUUUGGAUCAAGAAAUAAAUCGUUCCGAUACUAAGUCAACUGGACCUAAAGCUCCAAUUACAGACAUUGCCAUUAUUAUCAAAUCCAACAGAGGAUUGAGCAUCA
B19: chr21:26917921:26924620:-|three_prime_utr|ENSG00000154736|control|control|control (ssRNA)
RNA: GGGAGUUCUACAGUCCGACGAUCAGGAUUCCUGAAGGGGCAACCCACAUAAAAGUUCGACAGUUCAAAGCCAAAGACCAGACUAGAUUCACUGCCUAUUUAGCCCUGAAAAAGAAAAACGGUGAGUACCUUAUCAAUGGAAAGCAACAGAGGAUUGAGCAUCA
B20: ENSG00000107863:be:win_2651|CDS|ENSG00000107863|bound_else_gene|NA|bound_elsewhere_windowed (ssRNA)
RNA: GGGAGUUCUACAGUCCGACGAUCAGGGUCUGGAUGAUUACAGAGAAGAUGCAAAAUUGUCCUUUAAGCACGUAUCUAGUCUGAAGGGAAUCAAGAUCGCAGACAGCCAAAAGUCAUCAGAAGACUCUGGGUCCAGAAAAGAUUCAACAGAGGAUUGAGCAUCA
B21: chr13:108210031:108210147:-|CDS|ENSG00000174405|unk|total|mutant (ssRNA)
RNA: GGGAGUUCUACAGUCCGACGAUCAUGGUUAAUAAUAAAAAGCCCGGGCAUGAGACUCUGAGAAAGAGGUAUGAGAUUCUCCGCCGUAUUUUUACACCAAUUCCAGGCCGAACCGAAACCGUGCAGAAAACACAAGCUCAUACUCAACAGAGGAUUGAGCAUCA
B22: chr13:38882223:38882324:+|3pUTR|ENSG00000150893|msi1|total|mutant (ssRNA)
RNA: GGGAGUUCUACAGUCCGACGAUCAGAAAAAUAAGGUCAGGAGAAAAAGAAUAAUGCCUACAGAUUAUCCUUCAGAUGCUGGCCCGAAUCCCCUUUGACUUCCCGCCAUAAGCUGGCCACAUUGGACAUCUUGGUCACUGCAGACAACAGAGGAUUGAGCAUCA

target: T1, UNK ZnF1-6 (called full-length) (human, UniProt Q9C0B0 30-357); assay: nsRBNS (natural sequence RNA bind-n-seq); RBNS binding buffer (assumed for nsRBNS): 25 mM Tris pH 7.5, 150 mM KCl, 3 mM MgCl2, 0.01% Triton X-100, 500 ug/ml BSA, 20 U/ml SUPERase-In, 4 C; UNK is unkempt and MSI1 is Musashi-1; names of the RNAs are library labels; protein concentration not given here; high values mean tight binding
T1 sequence: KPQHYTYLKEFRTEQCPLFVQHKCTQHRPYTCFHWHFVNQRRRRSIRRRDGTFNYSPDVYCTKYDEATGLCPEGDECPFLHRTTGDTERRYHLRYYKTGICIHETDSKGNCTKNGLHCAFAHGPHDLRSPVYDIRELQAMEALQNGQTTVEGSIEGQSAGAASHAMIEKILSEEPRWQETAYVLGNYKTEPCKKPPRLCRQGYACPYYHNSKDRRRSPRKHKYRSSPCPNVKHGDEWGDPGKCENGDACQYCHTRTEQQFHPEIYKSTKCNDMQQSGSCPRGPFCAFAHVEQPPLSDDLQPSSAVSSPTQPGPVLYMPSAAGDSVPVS

Binder | binding signal
B1 | 1.56 enrichment R
B2 | 0.765 enrichment R
B3 | 0.617 enrichment R
B4 | 0.322 enrichment R
B5 | 0.909 enrichment R
B6 | 0.66 enrichment R
B7 | 0.91 enrichment R
B8 | 0.365 enrichment R
B9 | 0.548 enrichment R
B10 | 0.539 enrichment R
B11 | 0.437 enrichment R
B12 | 1.32 enrichment R
B13 | 0.79 enrichment R
B14 | 0.954 enrichment R
B15 | 0.446 enrichment R
B16 | 0.816 enrichment R
B17 | 1.12 enrichment R
B18 | 0.34 enrichment R
B19 | 0.599 enrichment R
B20 | 0.449 enrichment R
B21 | 0.726 enrichment R
B22 | 0.445 enrichment R
